± gives the standard deviation of the averaged measurements. Over roughly 33,000 sequences, “E-score (dimensionless, -0.5 to 0.5)” has its median near -0.046; the highest 2% begin near 0.36. The list shows a part of the results.
test system: T1, SpTbr T-box DNA-binding domain (GST fusion); assay: PBM E-score of 8-mer (E-score (dimensionless, -0.5 to 0.5)); Tbr is Tbrain of the sea star Patiria miniata (Pm) or the sea urchin Strongylocentrotus purpuratus (Sp); higher = stronger binding preference; most listed sequences are background and not binding sites; conditions: the construct has about 5 more residues each side
T1 sequence: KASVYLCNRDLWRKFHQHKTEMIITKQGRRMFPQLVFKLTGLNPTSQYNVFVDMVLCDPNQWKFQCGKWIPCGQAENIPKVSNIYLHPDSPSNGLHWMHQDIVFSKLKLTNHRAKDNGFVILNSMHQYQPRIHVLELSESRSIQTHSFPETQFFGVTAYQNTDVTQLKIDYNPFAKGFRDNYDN
Protocol: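 Universal protein-binding microarray (Agilent AMADID 016060, 60-bp probes with a 35-bp variable region) incubated with 200 nM GST-fused Strongylocentrotus purpuratus Tbr T-box DNA-binding domain (residues 362-554) in PBS pH 7.5. Scored for every ungapped 8-mer (given with its reverse complement) as E-score (range -0.5 to 0.5; >0.45 counts as bound) and Z-score of median probe intensity. Two replicate arrays (datasets 1 and 2).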
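Also: protein at 200 nM in PBS on universal double-stranded arrays.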

Sequence	PBM E-score of 8-mer
CATGGCGC	0.123 ± 0.024
CGCCCGCC	0.0256 ± 0.064
AGATTTGC	-0.00795 ± 0.0031
ATCCATTA	-0.0833 ± 0.079
CGCATCCG	0.0231 ± 0.073
AACGCATG	0.0228 ± 0.0081
ATACATCG	-0.0924 ± 0.14
ATCGCCAA	0.082 ± 0.066
ACCATGCG	0.0991 ± 0.1
GGGTCGCA	0.161 ± 0.04
CATTGGTA	-0.0191 ± 0.061
ATGTCCTC	0.000325 ± 0.1
GCTCTTGA	-0.0936 ± 0.022
CGCCTATC	0.177 ± 0.041
AGTCATGG	-0.0576 ± 0.067
ACTACCAG	-0.106 ± 0.028
CGTGTGGC	0.227 ± 0.026
AGAGAATG	-0.14 ± 0.097
AATAAAGT	-0.0833 ± 0.1
TCTATCAA	-0.141 ± 0.0063
GCTATGCC	-0.179 ± 0.013
CCCTGCTA	0.0606 ± 0.013
TAACGCCA	0.287 ± 0.011
TGATTACA	0.181 ± 0.027
AGCTACTG	-0.1381 ± 0.00048

Sequence	PBM E-score of 8-mer
ATGCCTAG	-0.258 ± 0.055
CAACCTCC	0.139 ± 0.03
AGTATCCA	-0.118 ± 0.0082
ATCAAGAA	-0.219 ± 0.094
AAGATGAA	-0.145 ± 0.019
ACCCCTAT	-0.0129 ± 0.053
GTCAACGA	0.256 ± 0.054
CGACCTGC	0.177 ± 0.026
CAGTGTGA	0.393 ± 0.0076
CGATGTGC	0.244 ± 0.03
GATGGCCA	-0.303 ± 0.027
ACTCCCAC	0.168 ± 0.048
GTGCGTTA	0.236 ± 0.012
TGATACAA	0.0954 ± 0.002
ACCATTCT	-0.0407 ± 0.1
CACCCTGA	0.217 ± 0.054
GACAGGAA	0.0368 ± 0.027
TAACTACA	0.0924 ± 0.085
CAAAACAC	0.142 ± 0.11
CACCCTCC	0.303 ± 0.025
CGATCCGA	-0.0614 ± 0.036
CTGCGCAA	0.0563 ± 0.0046
CTGTATGA	-0.196 ± 0.066
ACGTAGAG	-0.0816 ± 0.021
AACGAGCT	-0.117 ± 0.012

Sequence	PBM E-score of 8-mer
AAACCTTC	-0.199 ± 0.08
AGTGGAAG	-0.141 ± 0.012
ATGAACTG	0.0309 ± 0.018
CCCGACTC	0.103 ± 0.034
GATTGTTA	0.137 ± 0.0022
CCAGTAGC	-0.0938 ± 0.092
CCTCAGCG	-0.154 ± 0.046
CGTAGCAG	0.0623 ± 0.075
GGACTTCA	-0.288 ± 0.012
ACTTGGCA	0.163 ± 0.034
CGACGCAC	-0.103 ± 0.023
GATGGACC	-0.0614 ± 0.066
AGCCTATG	-0.165 ± 0.014
GTTCTCAA	0.19 ± 0.032
ACTACAAG	-0.0799 ± 0.021
ACTTCGCG	0.349 ± 0.014
GACATGAA	0.126 ± 0.011
CGCTTTCA	0.0674 ± 0.06
CGCGCACG	0.229 ± 0.086
CTACAAGA	-0.156 ± 0.024
CGTCTGTC	0.136 ± 0.045
AATACTCG	0.0591 ± 0.015
CAGCTCCG	0.0249 ± 0.014
CTCTAACC	-0.166 ± 0.0037
AACTATAA	-0.172 ± 0.029

Sequence	PBM E-score of 8-mer
TAAGCCTA	-0.209 ± 0.074
CTTCTAAC	0.16 ± 0.038
AAGCGTGC	0.141 ± 0.046
TCTTTGCA	0.137 ± 0.03
CATGTAGC	-0.143 ± 0.069
CCGCAGAA	-0.294 ± 0.015
ATGACCCG	-0.084 ± 0.044
GCATACGA	-0.124 ± 0.059
CGTTTTCC	-0.282 ± 0.054
CTCAGGTC	-0.186 ± 0.022
GCCACCAC	0.134 ± 0.041
CTCAACCC	-0.189 ± 0.015
CACTTGCC	0.283 ± 0.064
CATGACCC	-0.166 ± 0.043
ATTTATGG	0.00481 ± 0.012
GGAACAGA	-0.0497 ± 0.048
CTGCCTAA	-0.127 ± 0.075
GGCGATGA	0.114 ± 0.0014
AGCCCGAG	-0.295 ± 0.075
AGAGCTCT	-0.174 ± 0.047
CGGCCAGC	-0.115 ± 0.036
ACCAGCAC	0.118 ± 0.065
CCAAGCCG	-0.184 ± 0.089
CCTCGAAA	-0.0758 ± 0.12
AAGGAGTA	-0.284 ± 0.037

Sequence	PBM E-score of 8-mer
ATCGTCTA	-0.0894 ± 0.035
CGACGTGC	0.238 ± 0.043
CGAACTTA	0.11 ± 0.008
AATTGTCG	0.179 ± 0.055
TATGGCCA	-0.256 ± 0.031
AGTCGACA	0.179 ± 0.051
CTTAACTC	-0.0424 ± 0.024
AAGGTATA	-0.182 ± 0.026
ATCCGCGA	0.144 ± 0.014
TAAGCGCA	0.00496 ± 0.048
ACCAATGG	-0.0793 ± 0.064
CACCCACC	0.236 ± 0.023
CCCCAGAA	-0.191 ± 0.042
TAAGTTGA	-0.0099 ± 0.0011
GGCATACA	-0.216 ± 0.045
CCCAGAGC	-0.0127 ± 0.077
ACAGTCAC	0.27 ± 0.016
ACTTCCCT	-0.11 ± 0.01
CAGGCGTA	-0.0837 ± 0.018
GAGTGCCC	-0.0162 ± 0.073
GGTTCACA	0.3973 ± 0.0018
CCGTACTC	-0.0815 ± 0.035
GGTCACCA	-0.115 ± 0.053
CTATCGAG	0.147 ± 0.013
AAGCTAAT	-0.211 ± 0.012

Sequence	PBM E-score of 8-mer
CGTGGGGC	-0.0544 ± 0.011
AGTTATCG	0.0587 ± 0.047
CTGTGTAC	-0.0828 ± 0.018
ACCAACAT	-0.0463 ± 0.08
GCCGCCTA	-0.219 ± 0.02
CAGATCCA	-0.0608 ± 0.00019
CAGGTGAA	0.199 ± 0.031
CCAGCGAA	0.104 ± 0.025
CCAAAACC	0.00645 ± 0.01
GTCAACAA	0.333 ± 0.0095
AGCCAGCC	-0.185 ± 0.0059
ACTGTCTG	0.126 ± 0.021
AAATAGTA	-0.15 ± 0.14
AGTGTGCC	0.121 ± 0.013
CGGGGGTA	-0.276 ± 0.062
CCCGAAAA	-0.25 ± 0.016
AATGCTGT	-0.0262 ± 0.063
AGGCTAAT	-0.255 ± 0.1
CACGCTTA	0.269 ± 0.02
CATGTACC	-0.137 ± 0.038
GCCTGCCA	0.137 ± 0.021
CATAAGAC	-0.153 ± 0.019
ATGGGTAG	-0.0887 ± 0.038
TGACCGAA	0.199 ± 0.059
ACTGTAAA	0.0831 ± 0.058

Sequence	PBM E-score of 8-mer
AAACCAAA	-0.151 ± 0.062
GAGGATTA	0.0837 ± 0.03
GCCGACAC	0.397 ± 0.0048
GAACTTGC	0.0607 ± 0.052
CTTCGATA	-0.0573 ± 0.016
ACCCGGAG	0.166 ± 0.062
GCAGCACA	-0.0507 ± 0.022
GGCAGTAA	-0.0812 ± 0.029
AGTCATCA	0.0178 ± 0.049
ATCGACTC	-0.167 ± 0.072
CGTCGCAG	-0.0249 ± 0.077
AGCCCAAC	-0.148 ± 0.067
GGATGGTA	-0.28 ± 0.051
GGACATTA	-0.302 ± 0.0096
ACGTAACC	-0.154 ± 0.03
CAATGATG	-0.0679 ± 0.018
CCCGGTGA	-0.22 ± 0.014
ACTGACCG	-0.083 ± 0.076
CATCTTGA	0.0681 ± 0.024
ATCTTGAG	-0.022 ± 0.099
CAGGGCGA	0.0768 ± 0.017
GGGACGAA	-0.152 ± 0.14

Reference: the supplement of paper PMC4166925
